# According to PubChem BioAssay AID504332 (National Center for Advancing Translational Sciences (NCATS), 2011):
# Where “and” joins values, the source holds several entries; their conditions need not be identical. Equal values may be shown once. Out of some 350,000 compounds screened, about 31,000 (8.9%) were called active. Inconclusive means that the source gave no clear call. Such entries were picked first, then a sample of the others. Calls follow the shape of the dose curve; as a rule, active = well fitted inhibition curve with a large enough effect; inconclusive = small, poorly fitted or top-dose-only effect; inactive = no such curve, though single readings can be large or run the other way. A potency beside an inconclusive call is a rough fit, not a confirmed value.
# Target: Histone-lysine N-methyltransferase EHMT2 (Homo sapiens) (UniProt Q96KQ7)
# Sequence of UniProt Q96KQ7 (Q96KQ7 whole entry, looked up): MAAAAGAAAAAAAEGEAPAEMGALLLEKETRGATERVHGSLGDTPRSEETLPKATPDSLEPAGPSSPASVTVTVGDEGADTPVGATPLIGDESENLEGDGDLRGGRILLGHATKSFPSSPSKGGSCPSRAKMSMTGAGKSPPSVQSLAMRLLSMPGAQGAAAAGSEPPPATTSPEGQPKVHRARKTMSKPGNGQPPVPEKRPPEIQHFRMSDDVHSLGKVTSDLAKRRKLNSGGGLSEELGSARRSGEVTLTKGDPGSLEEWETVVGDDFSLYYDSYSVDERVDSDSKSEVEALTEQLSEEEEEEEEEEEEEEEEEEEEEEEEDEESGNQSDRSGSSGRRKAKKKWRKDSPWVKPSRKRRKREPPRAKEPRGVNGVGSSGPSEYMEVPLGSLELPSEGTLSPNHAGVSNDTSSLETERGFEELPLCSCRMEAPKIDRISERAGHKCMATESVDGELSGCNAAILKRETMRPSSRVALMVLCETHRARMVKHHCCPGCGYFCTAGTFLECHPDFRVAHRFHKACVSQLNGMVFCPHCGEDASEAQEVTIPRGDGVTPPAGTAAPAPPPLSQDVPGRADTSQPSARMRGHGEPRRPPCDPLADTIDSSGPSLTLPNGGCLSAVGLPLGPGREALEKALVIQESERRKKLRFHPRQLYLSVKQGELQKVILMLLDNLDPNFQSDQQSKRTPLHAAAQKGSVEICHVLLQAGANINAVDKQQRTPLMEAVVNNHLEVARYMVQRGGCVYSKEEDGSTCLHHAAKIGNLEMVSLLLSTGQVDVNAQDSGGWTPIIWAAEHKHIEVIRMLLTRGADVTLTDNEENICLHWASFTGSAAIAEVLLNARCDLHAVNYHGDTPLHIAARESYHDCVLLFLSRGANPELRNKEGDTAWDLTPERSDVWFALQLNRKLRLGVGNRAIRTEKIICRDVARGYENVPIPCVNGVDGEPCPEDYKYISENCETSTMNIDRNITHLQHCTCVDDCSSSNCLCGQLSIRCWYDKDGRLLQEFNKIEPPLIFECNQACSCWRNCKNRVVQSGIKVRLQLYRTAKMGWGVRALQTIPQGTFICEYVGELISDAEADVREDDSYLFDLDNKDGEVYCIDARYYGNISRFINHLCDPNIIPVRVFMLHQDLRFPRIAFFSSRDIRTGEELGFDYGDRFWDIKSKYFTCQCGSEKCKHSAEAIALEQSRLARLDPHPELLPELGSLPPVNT
# Test: qHTS Assay for Inhibitors of Histone Lysine Methyltransferase G9a; also: nearly all actives have a fitted effect of over 75% in size
# Conditions: G9a H3K9 monomethylation, AlphaScreen, 2 h; activity, negative = inhibition: at 59 µM (top of the series) unless noted
# In short: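 AlphaScreen detection with an anti-monomethyl H3K9 antibody quantified product after a 2 h room-temperature reaction containing 500 nM biotinylated H3K9 peptide, 20 µM SAM and 20 nM enzyme, which had been preincubated 15 min with compound.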
# % is scaled to controls: 0 for no effect and ±100 for the full control effect; potency is read from the fitted curve at half-maximal effect; tags tell the direction and shape of the fitted curve.
SMILES,Potency,"activity, negative = inhibition"
O=C(C1CC(c2ccccc2O)=NO1)N1CCCC1 (stereo not given),"inconclusive: 2.82 µM [inhibitor, partial curve, poor fit]",–
Cc1ccc2c(c1)C1CN(C)CCC1N2S(=O)(=O)c1ccc(Oc2ccc([N+](=O)[O-])cc2)cc1 (stereo not given),active: 35.5 µM,–
CC(C)NC(=O)c1ccccc1NC(=O)Cc1ccc([N+](=O)[O-])cc1,–,inconclusive: -94.3% [inhibitor]
CC(/C=N/N1CCN(c2ccccn2)CC1)=C\c1ccccc1,"inconclusive: 79.4 µM [inhibitor, partial curve, poor fit]",–
COc1cccc(N2C(=O)[C@H]3C(C(=O)c4cnccn4)=NN[C@H]3C2=O)c1,"inconclusive: 39.8 µM [inhibitor, single point]",–
COc1ccccc1NC(=O)CSc1nnc(Cc2cccn2C)n1-c1ccc(F)cc1,"inconclusive: 0.708 µM [inhibitor, full curve, poor fit]",–
O=C(O)c1ccc(/C=N/NC(=O)c2ccc(Br)cc2)cc1,inactive,–
C/C(CC(=O)NC1CCCCC1)=N\NC(=O)c1ccccc1C,active: 39.8 µM,–
Cc1ccc(NC(=O)CSc2nc3n[nH]c(C)c3c(=N)n2-c2ccccc2C)cc1C,inactive,–
CSC1=C(C#N)C(=O)NC(c2ccc(Cl)cc2)S1 (stereo not given),active: 31.6 µM,–
c1ccc2c(c1)oc1c(Nc3ccc4c(c3)OCO4)ncnc12,"inconclusive: 79.4 µM [inhibitor, single point]",–
CCOc1ccccc1CNS(=O)(=O)c1ccc2c(c1)oc(=O)n2C,"inconclusive: 89.1 µM [inhibitor, single point]",–
CCN(CC)c1ccc(NS(=O)(=O)c2ccc(OC)cc2)cc1,active: 15.8 µM,–
COc1ccc(-c2cccc(-c3cc(=O)oc4cc(OC)c(OC)c(OC)c34)c2)cc1,"inconclusive: 35.5 µM [inhibitor, single point]",–
O=C(NC(=S)N1CCN(C/C=C/c2ccccc2)CC1)c1c(F)cccc1F,"inconclusive: 1.12 µM [inhibitor, full curve]",–
Cc1cc(C)c(C)c(S(=O)(=O)N2C(=S)NC(=O)C2CC(C)C)c1C (stereo not given),"inconclusive: 1.58 µM [inhibitor, single point]",–
O=C(NC1CCCCCCC1)C1CCCN(S(=O)(=O)c2cnc[nH]2)C1 (stereo not given),inactive,–
CCOc1ccc(NC(=O)c2ccc(CNc3c(NC4CCCCC4)c(=O)c3=O)cc2)cc1,inactive,–
O=C(C[n+]1ccc2ccccc2c1)c1ccc(NC(=O)c2ccccc2)cc1,"inconclusive: 50.1 µM [inhibitor, partial curve, poor fit]",–
COc1ccc(-c2cc(C(=O)Oc3ccc(C#N)cc3)no2)cc1,inactive,–
COc1cc(C2C3=C(Nc4nc(N)[nH]c(=O)c42)c2ccccc2C3=O)ccc1O (stereo not given),–,inactive: -11.3% [at 12.7 µM]
O=[N+]([O-])/C(C(Cl)=C(Cl)Cl)=C(\Nc1ccc(F)cc1)n1cncn1,active: 8.91 µM,–
O=C(CSc1nnc(-c2ccccc2F)o1)NC1CCCCC1,inactive,–
C=C(C)c1cccc(C(C)(C)NC(=O)NC2CC(C)(C)NC(C)(C)C2)c1,inactive,–

SMILES,Potency,"activity, negative = inhibition"
CCN1CCCC1CNC(=O)C1CCCN(S(=O)(=O)c2cccc3nsnc23)C1 (stereo not given),"inconclusive: 56.2 µM [inhibitor, partial curve, poor fit]",–
C=CCNC(=O)COC(=O)C1CCN(S(=O)(=O)c2ccc3c(c2)OCCO3)CC1,"inconclusive: 50.1 µM [inhibitor, single point]",–
COc1cccc(CNCc2ccc(SC)cc2)c1OC,active: 22.4 µM,–
CCOC(=O)Cc1nnc(NC(=O)COc2ccc(C)cc2)s1,"inconclusive: 89.1 µM [inhibitor, partial curve, poor fit]",–
COc1ccc(OCCOCCN2CCOCC2)cc1,active: 11.2 µM,–
CCc1nn(-c2ccccc2)c2c1-c1cc(OC)c(OC)cc1C1(N2)C(=O)Nc2ccccc21 (stereo not given),active: 79.4 µM,–
Cc1ccsc1-c1nc(CSCC(=O)NCc2ccc3c(c2)OCO3)c(C)o1,"inconclusive: 89.1 µM [inhibitor, single point]",–
CC(OC(=O)Cc1c[nH]c2ccccc12)C(=O)Nc1ccc(S(N)(=O)=O)cc1 (stereo not given),inactive,–
CC1(c2ccc3c(c2)OCO3)NC(=O)N(CC(=O)Nc2ccc(N3CCOCC3)cc2)C1=O (stereo not given),"inconclusive: 3.98 µM [inhibitor, single point]",–
COc1ccc(CCCOC(Cn2ccnc2)c2ccc(OC)cc2)cc1 (stereo not given),"inconclusive: 14.1 µM [inhibitor, single point] and inconclusive: 22.4 µM [inhibitor, single point]",–
Cc1ccc(C2=NNC(C(O)C(O)C(O)C(O)CO)S2)cc1 (stereo not given),"inconclusive: 3.16 µM [inhibitor, full curve, poor fit]",–
Cc1ccc(-c2noc(-c3cccnc3N(C)Cc3ccc(Cl)cc3)n2)cc1,"inconclusive: 39.8 µM [inhibitor, partial curve, poor fit]",–
O=C(O)CN1C(=O)NC2NC(=O)NC21 (stereo not given),"inconclusive: 89.1 µM [inhibitor, single point]",–
Cc1cc(-c2ccc(C)c(S(=O)(=O)NCCc3ccco3)c2)on1,"inconclusive: 79.4 µM [inhibitor, single point]",–
O=[N+]([O-])c1cc(S(=O)(=O)NCCc2ccccn2)ccc1Cl,"inconclusive: 6.31 µM [inhibitor, single point]",–
Cc1cccc2cc(C(c3nnnn3C(C)(C)C)N(Cc3ccco3)CC3CCCO3)c(=O)[nH]c12 (stereo not given),active: 50.1 µM,–
O=C(CCc1nnc(CCCc2ccccc2)o1)NCCc1ccco1,inactive,–
COc1cc(Br)cc2cc(S(=O)(=O)c3ccccc3)c(=O)oc12,inactive,–
COC1CCCN(C(=O)c2ccc(OC3CCN(S(=O)(=O)N(C)C)CC3)cc2)C1 (stereo not given),inactive,–
CC(=O)N1c2ccc(S(=O)(=O)N(C)CC(=O)NC(C)c3ccccc3)cc2CC1C (stereo not given),inactive,–
CCOC(=O)N1CCN(C(=O)C2CCN(c3nnc(-n4cccc4)s3)CC2)CC1,inactive,–
Cn1c(C(=O)N2CCN(Cc3ccccc3)CC2)cc2c(=O)n(C)c3ccccc3c21,active: 44.7 µM,–
Cc1nc2nc(SCC(=O)c3ccc([N+](=O)[O-])cc3)[nH]c2cc1Br,active: 20 µM,–
Oc1ccc(-c2nc3c4c(ncn3n2)-c2ccccc2CC42CCCC2)cc1,inactive,–

SMILES,Potency,"activity, negative = inhibition"
CSc1nnc(C)c(/C=C/Nc2ccc(F)cc2F)n1,"inconclusive: 89.1 µM [inhibitor, single point]",–
Cc1ccsc1C(=O)OCc1cc(=O)n2ccsc2n1,"inconclusive: 28.2 µM [inhibitor, single point]",–
CCc1cccc(C)c1Nc1c(-c2ccc(N(C)C)cc2)nc2cnccn12,active: 17.8 µM,–
CCC(=O)NC(c1cccs1)c1cc([N+](=O)[O-])c2cccnc2c1O (stereo not given),"inconclusive: 5.01 µM [inhibitor, full curve, poor fit]",–
COc1cccc(CNC(=O)c2ccc3nc(CCc4ccccc4)oc3c2)c1OC,"inconclusive: 31.6 µM [inhibitor, single point]",–
O=C(N/C(=C\c1ccccc1)C(=O)N1CCOCC1)c1cccc(Br)c1,"inconclusive: 44.7 µM [inhibitor, partial curve]",–
CCC(C(=O)Nc1nccs1)(C(F)(F)F)C(F)(F)F,"inconclusive: 2 µM [inhibitor, partial curve, poor fit]",–
Cc1ccc2oc3nc(C)c(C(=O)Nc4cccc(C(F)(F)F)c4)cc3c(=O)c2c1,inactive,–
O=C(NCCNC1CCN(Cc2ccccc2)CC1)c1cccs1,active: 1.78 µM,–
CCOc1ccc(NC(=O)Cn2nc(CC)n3c(cc4sccc43)c2=O)cc1,inactive,–
Cc1ccc2c(c1)c1c(c(=O)n(-c3cccc(Cl)c3)c(=O)n1CC(N)=O)n2C,inactive,–
CN(CCCC[C@H](CNCc1ccc(-c2ccccc2)cc1)N1C[C@H](c2ccccc2)N(CCc2ccc(Cl)c(Cl)c2)C(=O)C1=O)Cc1ccc(-c2ccccc2)cc1,"inconclusive: 3.16 µM [inhibitor, single point]",–
CCCCN(C(=O)c1ccc([N+](=O)[O-])s1)c1c(N)n(CC(C)C)c(=O)[nH]c1=O,inactive,–
COc1ccccc1CCC(=O)OCC(=O)Nc1c(C)nn(-c2ccccc2)c1C,"inconclusive: 20 µM [inhibitor, partial curve, poor fit]",–
CN1CCN(c2nnc(-c3ccccc3)c(-c3ccccc3)n2)CC1,"inconclusive: 44.7 µM [inhibitor, partial curve, poor fit]",–
O=C(NNC(=O)c1csc(N2CCOCC2)n1)c1ccc(=O)[nH]c1,"inconclusive: 3.16 µM [inhibitor, partial curve, poor fit]",–
CCC(C(=O)NC(C)(C)C)N(Cc1ccco1)C(=O)CNS(=O)(=O)c1ccc(OC)cc1 (stereo not given),inactive,–
COc1ccc(C2C(C#N)=C(N)Oc3cc4c(cc32)OCO4)cc1 (stereo not given),–,inconclusive: -75.1% [inhibitor]
CSc1cccc(NC(=S)N2CCCN(Cc3ccccc3F)C2)c1,"inconclusive: 35.5 µM [inhibitor, full curve]",–
O=c1cc(CSc2nnnn2-c2ccccc2)nc2nc[nH]n12,–,inactive: -27.5% [at 12.7 µM]
O=C(NCCN1CCOCC1)c1ccc2c(c1)N(Cc1ccc(Cl)cc1)C(=O)CS2,"inconclusive: 89.1 µM [inhibitor, single point]",–
COc1cc(/C=N/n2cnnc2)ccc1OCc1ccc(C)cc1,"inconclusive: 100 µM [inhibitor, partial curve, poor fit]",–
